In the supplement of paper PMC10369915:
Some of the results follow. Cut-off read from the data, not from the text of the source: active = 3.2 or more and inactive = the rest. Most of these values are background signal.

What was measured:
Assay in all cases: enrichment score (SH2-bound / input frequency) (ratio); bacterial display of known human phosphotyrosine sites (pTyr-Var adds point mutants) read by sequencing; higher = stronger binding; tyrosines were phosphorylated by kinases first
Conditions in all cases: peptide library: Human pTyr
[1] = target: SHP2 C-SH2 domain E139D
[2] = target: SHP2 C-SH2 domain wild-type
[3] = target: SHP2 N-SH2 domain L43F
[4] = target: SHP2 N-SH2 domain T42A
[5] = target: SHP2 N-SH2 domain T52S
[6] = target: SHP2 N-SH2 domain wild-type
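Note: displayed peptides selected on beads carrying the immobilized SH2 domain, with library peptides lacking any tyrosine serving as negative controls.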

Binder | enrichment score [1] | enrichment score [2] | enrichment score [3] | enrichment score [4] | enrichment score [5] | enrichment score [6]
WSKDINAYNCEEPTE [PRDX6_HUMAN_89] | inactive: 0.969 | inactive: 0.905 | inactive: 0.969 | inactive: 1.04 | inactive: 1.52 | inactive: 0.974
AFLKAWVYRPGEDTE [PR15A_HUMAN_434] | inactive: 0.935 | inactive: 0.715 | inactive: 0.645 | inactive: 0.58 | inactive: 0.798 | inactive: 0.916
GKLVQIEYALAAVAG [PSA2_HUMAN_24] | inactive: 0.858 | inactive: 0.883 | inactive: 0.816 | inactive: 0.797 | inactive: 1.14 | inactive: 0.958
GYHKDHVYGIHNPVM [PROM1_HUMAN_852] | inactive: 0.824 | inactive: 0.786 | inactive: 0.881 | inactive: 0.634 | inactive: 1 | inactive: 0.751
VDTDGNGYISFNELN [PLSL_HUMAN_28] | inactive: 0.717 | inactive: 0.671 | inactive: 0.672 | inactive: 0.702 | inactive: 0.608 | inactive: 0.795
AGPRPEEYEFLTPVE [ARHGDIB_HUMAN_153_YA] | inactive: 1.93 | inactive: 1.73 | inactive: 1.41 | inactive: 1.24 | inactive: 1.58 | inactive: 1.15
DIVDEAIYYFKANVF [ARPC3_HUMAN_47] | inactive: 1.86 | inactive: 1.65 | inactive: 1.52 | inactive: 1.59 | inactive: 1.86 | inactive: 1.83
SDNEPDHYRYSDTTD [PTEN_HUMAN_377] | inactive: 0.841 | inactive: 0.743 | inactive: 0.8 | inactive: 0.756 | inactive: 0.769 | inactive: 1.14
VLRGQPIYIQFSNHK [PTBP1_HUMAN_127] | inactive: 2.48 | inactive: 2.51 | inactive: 2.48 | inactive: 2.86 | inactive: 2.72 | active: 4.07
AQEALDFYGEVRTRD [PTEN_HUMAN_155] | inactive: 0.787 | inactive: 0.692 | inactive: 0.705 | inactive: 0.646 | inactive: 0.618 | inactive: 0.795
SKRKGHEYTNIKASL [PTN11_HUMAN_546_YA] | inactive: 2.69 | inactive: 3.09 | inactive: 3.04 | inactive: 2.78 | active: 3.3 | active: 3.61
NRPPPNAYELFAKGY [PRMT5_HUMAN_297] | inactive: 1.17 | inactive: 1.09 | inactive: 1.04 | inactive: 0.918 | inactive: 1.18 | inactive: 1.28
VVLVDPEYLKERRVY [ARRB1_HUMAN_47] | inactive: 0.972 | inactive: 0.538 | inactive: 0.548 | inactive: 0.548 | inactive: 0.483 | inactive: 0.592
GGPGPRVYFQSPPGA [PP14B_HUMAN_29] | inactive: 0.831 | inactive: 0.71 | inactive: 0.679 | inactive: 1.05 | inactive: 1.06 | inactive: 0.934
SHDHNIPYKWTAPEA [PTK6_HUMAN_351] | inactive: 0.826 | inactive: 0.727 | inactive: 0.715 | inactive: 0.958 | inactive: 0.643 | inactive: 0.723
MGLILQGYESGSEEE [PRP4B_HUMAN_140] | inactive: 1.24 | inactive: 0.74 | inactive: 1.06 | inactive: 1.17 | inactive: 1.26 | inactive: 1.18
SSPDDPNYSLVDDAS [PPIP2_HUMAN_323_YA] | inactive: 0.933 | inactive: 0.998 | inactive: 1.18 | inactive: 0.918 | inactive: 1.02 | inactive: 1.01
FAFSGGLYGGLPPTH [PP1R8_HUMAN_264] | inactive: 0.83 | inactive: 0.92 | inactive: 0.952 | inactive: 1.3 | inactive: 0.956 | inactive: 0.978
